According to PubChem BioAssay AID624173 (National Center for Advancing Translational Sciences (NCATS), 2012):
Hit rate of the full screen: of about 410,000 compounds, about 490 (0.12%) were called active. This list was built around the results that the source calls inconclusive (neither active nor inactive); the mix of calls is not that of the screen. Calls follow the shape of the dose curve; as a rule, active = well fitted inhibition curve with a large enough effect; inconclusive = small, poorly fitted or top-dose-only effect; inactive = flat fitted curve, though single readings scatter. Where the call is inconclusive, the potency comes from a doubtful curve fit.
Also: nearly all actives have a fitted effect of over 50% in size.
Potency is read from the fitted curve at half-maximal effect; tags tell the direction and shape of the fitted curve.

The compounds below were run against pyruvate kinase (Trypanosoma brucei) (UniProt Q57TT1) (assay: qHTS of Trypanosoma Brucei Inhibitors). Settings: TbPYK enzyme, Kinase-Glo Plus ATP luminescence, 45 min; series mostly up to 76.8 µM; activity, negative = inhibition: at the top concentration.
Excerpt: Members of the Trypanosomatidae family of parasitic protozoans cause a spectrum of diseases throughout the tropical and subtropical world. Sleeping sickness, caused by two subspecies of Trypanosoma brucei, is endemic to areas of sub-Saharan Africa, while Chagas' disease, a manifestation of Trypanosoma cruzi infection, is prevalent throughout Central and South America. In addition, many species of Leishmania are responsible for a range of cutaneous and visceral diseases, causing ulcers, destructive lesions and kalaazar, a lethal infection of the viscera. These diseases cause severe public health and economic burdens on populations that are often already caught in a tragic cycle of poverty, poor nutrition and disease. Collectively, parasites of the trypanosomatid family infect 30 million people worldwide (~500 million live in endemic areas), and account for ~130K deaths annually. Existing treatments have developed little in the past 50 years, and suffer from toxicity, poor efficacy and resistance; the goal of this project is to develop lead drugs that will be suitable for entry into pre-clinical trials.
Glycolysis in axenically cultured T. cruzi, representing the intracellular pathogenic stage, is also essential for these parasites. {Engel, 1987} This project aims to discover and optimize selective inhibitors of the glycolytic enzyme pyruvate kinase (PYK) from Trypanosoma brucei, the parasite that causes sleeping sickness. […] Trypanosomatid PYKs show significant differences from their human counterparts including only 47-50% sequence identity and different allosteric and activation properties.{Callens, 1992} To this end, a qHTS was done against the MLSMR to discover inhibitors.
NIH Molecular Libraries Probe Production Network [MLPCN]
NIH Chemical Genomics Center [NCGC]
PI Name: Malcolm Walkinshaw, University of Edinburgh
2 uL of TbPYK/substrate buffer (columns 1-3, 5-48) are dispensed into Greiner white solid bottom 1536-well assay plates; column 4 receives only TEA buffer as 0x TbPYK controls. Compounds are then transferred via Kalypsys pin tool equipped with 1536-pin array (10 nL slotted pins, V&P Scientific, San Diego, CA). Following addition of compound, 2 uL of ADP (130 uM final concentration, all columns) is added to initiate the reaction. The plates are then incubated at room temperature for 45 minutes. Kinase-Glo Plus reagent is added (3 uL) and plates incubated for 10 minutes, before being transferred to a ViewLux high-throughput CCD imager (PerkinElmer) wherein single end-point measurements of luminescence are acquired using a clear filter. All reagents are diluted in an assay buffer consisting of 50 mM TEA (pH 7.2), 100 mM KCl, 10 mM MgCl2, 0.05% BSA and 0.01% Tween-20.
All screening operations will be performed on a fully integrated robotic system (Kalypsys, San Diego, CA) containing one RX-130 and two RX-90 anthropomorphic robotic arms (Staeubli, Duncan, SC). Library plates will be screened starting from the lowest and proceeding to the highest concentration. Vehicle-only plates, with DMSO being pin-transferred to columns 5-48, will be inserted uniformly at the beginning and the end of each library in order to monitor and record any shifts in the background, which can be affected by reagent dispensers or loss in enzyme activity over time. Screening data will be corrected, normalized, and concentration-effect relationships will be derived by using publicly-available curve fitting algorithms developed in-house (http://ncgc.nih.gov/pub/openhts).
In the case of O=S(=O)(O)c1cc(O)c2c(O)c(N=Nc3cc(Cl)ccc3O)c(S(=O)(=O)O)cc2c1, the Potency is reported as inconclusive: 31.6 µM [inhibitor, partial curve]. With FC(F)(F)c1ccc(-n2cn[nH]c2=S)cc1 the Potency was inconclusive: 5.62 µM [inhibitor, partial curve, poor fit]. With Cc1cccc2c(N=O)c(O)[nH]c12 the Potency was inconclusive: 28.2 µM [inhibitor, single point]. For Cn1c(CC(=O)Nc2ccc(Cl)c(Cl)c2)n[nH]c1=S, the Potency was inconclusive: 3.55 µM [inhibitor, partial curve, poor fit]. With CCOc1ccccc1NC(=O)c1c(NCc2ccc(C)o2)sc2c1CCCCC2 the Potency was inconclusive: 35.5 µM [inhibitor, partial curve]. In the case of Cc1nn(Cc2ccc(C(=O)Nc3ccc(C(=O)OC(C)C)cc3)o2)c(C)c1Cl, the Potency is reported as inconclusive: 39.8 µM [inhibitor, single point]. In the case of Cc1ccc(-c2cc(-c3n[nH]c(=S)n3C)c3ccccc3n2)cc1, the Potency is reported as inconclusive: 15.8 µM [inhibitor, partial curve, poor fit]. With O=C(O)c1cccnc1SCc1cn2cc(Br)ccc2n1 the Potency was inconclusive: 50.1 µM [inhibitor, single point]. In the case of Cc1nc(-c2cccc(NC(=O)Nc3ccc([N+](=O)[O-])cc3)c2)no1, the “activity, negative = inhibition” value is reported as inactive: -10%. With O=C(O)c1cccc(-n2sc3ccccc3c2=O)c1 the Potency was inconclusive: 5.01 µM [inhibitor, full curve, poor fit]. For c1coc(-c2nc3ccccc3nc2-c2ccco2)c1, the Potency was inconclusive: 31.6 µM [inhibitor, partial curve]. O=C1NC(=O)N(Cc2cccs2)C(=O)/C1=C/c1ccc(N2CCOCC2)cc1 was tested, and the Potency was inconclusive: 28.2 µM [inhibitor, single point]. With CCCc1cc(Nc2c(C)n(C)n(-c3ccccc3)c2=O)n2c(nc3ccccc32)c1C#N the “activity, negative = inhibition” value was inactive: 4.24%. For CCN(CC)CCn1c2ccccc2c(=O)c2c(O)ccc(O)c21, the Potency was inconclusive: 35.5 µM [inhibitor, partial curve, poor fit]. COc1cc2c(oc(=O)c3cc(C)cc(OC)c32)c2c(C3OC(C)C(O)C(C)(O)C3O)ccc(O)c12 (centres undefined) was tested, and the “activity, negative = inhibition” value was inactive: -13.2%. In the case of Nc1c(C(=O)N2CCOCC2)sc2nc(N3CCOCC3)c3c(c12)CCCC3, the Potency is reported as active: 15.8 µM. CCOc1ccc(-c2c(=O)n(OCC)c3ccccc3[n+]2[O-])cc1 was tested, and the “activity, negative = inhibition” value was inactive: -3.36%. O=c1c2ccccc2cnn1Cc1n[nH]c(=S)n1-c1cc(Cl)cc(Cl)c1 was tested, and the Potency was active: 6.31 µM. In the case of Cc1ccc(N(CC(O)CN2CCOCC2)S(=O)(=O)c2ccc([N+](=O)[O-])cc2)cc1 (centres undefined), the “activity, negative = inhibition” value is reported as inactive: -4.75%. Cc1nc(SCC(=O)O)c(C#N)c(C)c1CC(=O)c1ccccc1 was tested, and the Potency was inconclusive: 11.2 µM [inhibitor, partial curve, poor fit]. With Cc1cc(C)c2[nH]c(=O)c(C(c3nnnn3C(C)(C)C)N3CCN(C(=O)c4ccco4)CC3)cc2c1 (centres undefined) the Potency was inconclusive: 39.8 µM [inhibitor, partial curve, poor fit]. In the case of Cc1cc(=O)n2c3c(c4c(cc13)c(CN(C)C)cc(=O)n4C)OC2, the “activity, negative = inhibition” value is reported as inactive: 0.547%. For COc1ccc(CCNC(=O)c2cc(S(=O)(=O)N3CCCCC3)ccc2Cl)cc1, the Potency was inconclusive: 35.5 µM [inhibitor, single point]. For O=C(CCn1cnnn1)Nc1ccc(F)cc1, the Potency was “inactive”. For S=c1nc(-c2ccccc2Cl)[nH][nH]1, the Potency was inconclusive: 15.8 µM [inhibitor, partial curve, poor fit]. With c1ccc(-c2csc(N3CCSCC3)n2)cc1 the Potency was inconclusive: 12.6 µM [inhibitor, partial curve, poor fit]. COc1ccccc1NC(=O)CSc1nnc(-c2ccc(NC(C)=O)cc2)n1C was tested, and the Potency was inconclusive: 25.1 µM [inhibitor, partial curve, poor fit]. In the case of Cc1cc(C(=O)COC(=O)c2cc(O)c3ccccc3c2O)c(C)n1CC1CCCO1 (centres undefined), the Potency is reported as inconclusive: 50.1 µM [inhibitor, single point]. In the case of CCOc1ccccc1-n1c(=S)sc2c(=O)n(-c3ccc(C)cc3)c(=S)[nH]c21, the Potency is reported as inconclusive: 5.62 µM [inhibitor, partial curve, poor fit]. With Cc1cc(N2CCCCC2)ccc1C=C1C(=O)N(C)C(=S)N(C)C1=O the Potency was inconclusive: 28.2 µM [inhibitor, partial curve]. In the case of Cc1ccc(-c2cc(C(=O)NCc3ccco3)c3ccccc3n2)o1, the Potency is reported as inconclusive: 28.2 µM [inhibitor, single point]. For Cn1ccc(C(=O)Nc2sc3c(c2C(N)=O)CCCCC3)n1, the Potency was inconclusive: 25.1 µM [inhibitor, partial curve, poor fit]. With N#Cc1c(-c2ccco2)c2c([nH]c1=S)CCCC2 the Potency was active: 17.8 µM. In the case of COc1ccc(-n2c(-c3ccc(OC)c(OC)c3)n[nH]c2=S)cc1, the Potency is reported as active: 3.98 µM. With C=CCOc1c(Br)cc(CNn2c(C)n[nH]c2=S)cc1OCC the Potency was inconclusive: 7.08 µM [inhibitor, full curve]. COc1ccc(/C=N/N=C2/NC(=O)C(CC(=O)O)S2)cc1OCc1ccccc1Cl (centres undefined) was tested, and the Potency was inconclusive: 39.8 µM [inhibitor, single point]. For COc1ccc(C)cc1NC(=O)CCS(=O)(=O)c1cc2c3c(c1)CCN3C(=O)CC2, the Potency was inconclusive: 50.1 µM [inhibitor, single point]. In the case of COc1ccc(N(CC(=O)NCCSCc2ccco2)S(=O)(=O)c2ccc(C)cc2)cc1, the “activity, negative = inhibition” value is reported as inactive: 2.93%. With CCOC(=O)N1CCc2c(sc(NCc3sccc3C)c2C(=O)Nc2ccc(OC)cc2OC)C1 the Potency was inconclusive: 2.24 µM [inhibitor, full curve, poor fit]. In the case of CCOC(=O)c1c(C)[nH]c(C2=NNC(=NC3CC3)SC2)c1C, the Potency is reported as active: 7.94 µM. In the case of COc1cc(/C=C/[N+](=O)[O-])ccc1OC(=O)c1cccnc1, the Potency is reported as inconclusive: 8.91 µM [inhibitor, partial curve]. C/C(Cn1nc([N+](=O)[O-])cc1C)=N\NC(=O)COc1c(Cl)cc(Cl)cc1Cl was tested, and the Potency was inconclusive: 4.47 µM [inhibitor, full curve, poor fit]. With O=C(O)/C=C/C(=O)Nc1ccc(N2CCOCC2)nc1N1CCOCC1 the Potency was inconclusive: 22.4 µM [inhibitor, partial curve, poor fit]. For CN1CCN(S(=O)(=O)c2ccc(N3CCN(c4ccc(O)cc4)CC3)c([N+](=O)[O-])c2)CC1, the Potency was inconclusive: 25.1 µM [inhibitor, partial curve]. For CC(C)Oc1ccc(C(=O)NCc2ccco2)cc1, the Potency was inconclusive: 44.7 µM [inhibitor, single point]. In the case of O=C(Nc1ccc2c(c1)OCO2)c1cc(-c2ccc(O)cc2)on1, the “activity, negative = inhibition” value is reported as inactive: 2.72%. With Cc1ccc(-n2c(Cn3nc(C(F)(F)F)cc3C)n[nH]c2=S)cc1 the Potency was active: 10 µM. With Cc1ccc(NC(=O)N2CCCC(c3ccccc3)C2)cc1 (centres undefined) the “activity, negative = inhibition” value was inactive: -0.0583%. With Nc1ccc(Oc2cc(N)cc(Oc3ccccc3)c2)cc1 the “activity, negative = inhibition” value was inactive: -5.11%. CCN(CC(=O)Nc1ccc(OC)cc1)C(=O)c1ccc2c(c1)NC(=O)C(C)S2 (centres undefined) was tested, and the Potency was active: 28.2 µM. COC(=O)c1c(NC(NC(C)=O)C(Cl)(Cl)Cl)sc2c1CCCC2 (centres undefined) was tested, and the Potency was inconclusive: 10 µM [inhibitor, partial curve]. In the case of CCOc1ccc(C(=S)NC2CCCCC2)cc1OCC, the Potency is reported as inconclusive: 12.6 µM [inhibitor, partial curve, poor fit]. With Cc1cccc(-c2nc3cc(NC(=O)C4CCCO4)ccc3o2)c1 (centres undefined) the Potency was inconclusive: 35.5 µM [inhibitor, partial curve, poor fit]. With Cc1ccc(S(=O)(=O)N(C)c2ccc(C(=O)NC3CCCCC3)cc2)cc1 the “activity, negative = inhibition” value was inactive: -0.714%. For CCOC(=O)CC(=O)CSc1nc2c(cc1C#N)CCCCC2, the Potency was inconclusive: 25.1 µM [inhibitor, partial curve]. With S=c1[nH]nc(Cc2n[nH]c(=S)n2-c2ccccc2)n1-c1ccccc1 the Potency was inconclusive: 12.6 µM [inhibitor, partial curve]. O=C(C1COc2ccccc2O1)N1CCN(c2nc3c(F)cccc3s2)CC1 (centres undefined) was tested, and the “activity, negative = inhibition” value was inactive: 9.66%. For Cc1c(NS(=O)(=O)c2ccccc2)cc(Cl)c(O)c1C, the “activity, negative = inhibition” value was inactive: -4.06%. In the case of CCCCn1c(C)csc1=Nc1cccnc1, the “activity, negative = inhibition” value is reported as inactive: -9.46%. Cc1cc(C)c2[nH]c(=O)c(CN(Cc3ccco3)C(=O)C3CCCO3)cc2c1 (centres undefined) was tested, and the “activity, negative = inhibition” value was inactive: 0.78%. COCCCNC(=O)c1cc(-c2ccc(OC)cc2)nc2n[nH]c(-c3ccc(Cl)cc3)c12 was tested, and the “activity, negative = inhibition” value was inactive: -1.99%. In the case of CC(Sc1nc(N2CCOCC2)c2c(c1C#N)CC(C)(C)OC2)C(=O)Nc1ccccc1 (centres undefined), the Potency is reported as inconclusive: 15.8 µM [inhibitor, partial curve, poor fit]. CC(OC(=O)c1cc(O)c2ccccc2c1O)C(=O)Nc1ccc(C(N)=O)cc1 (centres undefined) was tested, and the Potency was inconclusive: 28.2 µM [inhibitor, single point]. With Oc1cc2c(cc1O)[C@H]1c3ccc(O)c(O)c3OC[C@@]1(O)C2 the Potency was active: 5.62 µM. CCOc1ccccc1NC(=O)Cn1cnc2c1c(=O)n(C)c(=O)n2C was tested, and the “activity, negative = inhibition” value was inactive: -7.26%. With O=S(=O)(c1ccc(-c2n[nH]c(=S)o2)cc1)N1CCCCC1 the Potency was inconclusive: 31.6 µM [inhibitor, partial curve, poor fit]. Cc1ccsc1-c1n[nH]c(=S)n1CC(C)C was tested, and the Potency was inconclusive: 7.94 µM [inhibitor, partial curve]. In the case of O=C(Nc1nc2c(F)cc(F)cc2s1)c1ccc2c(c1)OCCO2, the “activity, negative = inhibition” value is reported as inactive: -6.59%. Nc1ccc(-c2nc3ccc(C(=O)O)cc3s2)cc1 was tested, and the Potency was inconclusive: 28.2 µM [inhibitor, partial curve, poor fit].
